The other results are listed elsewhere or left out. The main result of the screen is listed elsewhere. These columns were measured beside it and carry no call.

Experimental findings from PubChem BioAssay AID1745853 (National Center for Advancing Translational Sciences (NCATS), 2022) are described below.

Holding throughout (test): Primary Screen for Target Class Profiling of Small Molecule Inhibitors of Methyltransferases
Experiment [1] concerns the target Glycine N-methyltransferase (Homo sapiens) (UniProt Q14749). The note with it: purified enzyme, MTase-Glo SAH luminescence; measured here: GNMT inhibition; at 40 µM; stronger effect = lower value. In outline: (§1)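 Each enzyme was assayed with SAM and its substrate. SAH formation detected by MTase-Glo luminescence; single-point 40 uM screen[…].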
Experiment [2] addresses Guanidinoacetate N-methyltransferase (Homo sapiens) (UniProt Q14353). The following applies: purified enzyme, MTase-Glo SAH luminescence; measured here: GAMT inhibition; at 40 µM; stronger effect = lower value. The procedure, abridged:
as §1

In experiment [3] the target is Histamine N-methyltransferase (Homo sapiens) (UniProt P50135). The following applies: purified enzyme, MTase-Glo SAH luminescence; measured here: HNMT inhibition; at 40 µM; stronger effect = lower value. The procedure, abridged: as §1
Experiment [4] deals with Nicotinamide N-methyltransferase (Homo sapiens) (UniProt P40261). The following applies: purified enzyme, MTase-Glo SAH luminescence; measured here: NNMT inhibition; at 40 µM; stronger effect = lower value. The procedure, abridged: as §1
Experiment [5] addresses Phenylethanolamine N-methyltransferase (Homo sapiens) (UniProt P11086). The following applies: purified enzyme, MTase-Glo SAH luminescence; measured here: PNMT inhibition; at 40 µM; stronger effect = lower value. The procedure, abridged: as §1
% is set by controls: 0 for no effect and ±100 for the full control effect.

In the case of `CC(C)Cn1c(=O)c2ccc(C(=O)NC3CCCC3)cc2n2c(SCC(=O)NC(C)(C)C)nnc12`, the activity change, negative = inhibition in experiment [1] was 0.75%; in experiment [2], 3.89%; in experiment [3], 5.99%; in experiment [4], -6.67%; in experiment [5], -0.132%.

Turning to `CC(C)Cn1c(=O)c2ccc(C(=O)NC(C)C)cc2n2c(=O)n(Cc3ccc(F)cc3)nc12`, the activity change, negative = inhibition in experiment [1] was 1.36%; in experiment [2], -1.08%; in experiment [3] it was -1.87%; in experiment [4] it was -2.12%; in experiment [5], -3.85%.

On to `COC1CN(c2cccc(F)c2)C12CCN(C(=O)CC1CCCCC1)CC2` (configuration not stated), for which the activity change, negative = inhibition in experiment [1] is -11.1%; in experiment [2] it was -5.32%; in experiment [3] it was -3.8%; in experiment [4] it was -22.9%; in experiment [5], -8.16%.

For `Cn1c(=O)c2ccc(C(=O)NC3CCCC3)cc2n2c(=O)n(CC(=O)Nc3ccccc3Cl)nc12`, the activity change, negative = inhibition in experiment [1] was 6%; in experiment [2] it was 4.97%; in experiment [3], 5.29%; in experiment [4], -1.82%; in experiment [5], 2.17%.

In the case of `CCc1noc([C@@H]2CC(F)(F)CN2C(=O)CCn2cc(C)cn2)n1`, the activity change, negative = inhibition in experiment [1] was -0.746%; in experiment [2], -1.83%; in experiment [3], -0.136%; in experiment [4], -3.08%; in experiment [5] it was -3.97%.

In the case of `CN1C(=O)c2cc(C(=O)NCc3ccc(F)cc3)nn2CC1(C)C(=O)NCc1ccccc1` (configuration not stated), the activity change, negative = inhibition is -2.13% in experiment [1]; -3.01% in experiment [2]; 1.1% in experiment [3]; -7.14% in experiment [4]; -5.63% in experiment [5].

Consider `CN1CCc2cc(NC(=O)Nc3cccnc3)ccc21`, for which the activity change, negative = inhibition was -21.9% in experiment [1]; 2.49% in experiment [2]; -6.18% in experiment [3]; -7.41% in experiment [4]; -4.48% in experiment [5].

On to `COc1cc(Cl)c(NC(=O)CN(C)S(=O)(=O)c2ccc3[nH]c4c(c3c2)CCCC4)c(OC)c1`, for which the activity change, negative = inhibition came to 5.43% in experiment [1]; 0.623% in experiment [2]; 3.36% in experiment [3]; 7.42% in experiment [4]; 2.54% in experiment [5].

For the compound `CCCn1c(=O)c2ccc(C(=O)NC(C)CC)cc2n2c(SCC(=O)Nc3cc(C)cc(C)c3)nnc12` (configuration not stated), the activity change, negative = inhibition in experiment [1] came to 3.99%; in experiment [2], 0%; in experiment [3], 5.37%; in experiment [4], 6.6%; in experiment [5], 4.95%.

Consider `CC(C)CCn1c(=O)c2ccccc2n2c(=O)n(CC(=O)Nc3cccc(Cl)c3)nc12`, for which the activity change, negative = inhibition in experiment [1] is 0.638%; in experiment [2], 0%; in experiment [3], 5.36%; in experiment [4], -5.59%; in experiment [5] it was 0.829%.

As for `COc1cccc(CN2C(=O)c3ccc(-c4ccccc4)n3CC2(C)C(=O)NC2CCCCC2)c1` (configuration not stated), the activity change, negative = inhibition in experiment [1] is 5.02%; in experiment [2], 0.893%; in experiment [3], 7.14%; in experiment [4], 0.075%; in experiment [5], 3.89%.

As for `COc1cc(C(=O)N[C@@H]2[C@@H](c3ccccc3)[C@@H](CO)N3CCCC[C@H]23)cc(OC)c1OC`, the activity change, negative = inhibition in experiment [1] is -7.4%; in experiment [2] it was -1.08%; in experiment [3], -0.083%; in experiment [4] it was -0.593%; in experiment [5], 0.774%.

For the compound `CCCn1c(=O)c2ccc(Cl)cc2n2c(=O)n(Cc3c(F)cccc3Cl)nc12`, the activity change, negative = inhibition in experiment [1] was determined as 3.5%; in experiment [2] it was 0%; in experiment [3], 10.6%; in experiment [4], 3.2%; in experiment [5], 4.08%.

On to `CN1C(=O)c2cc(C(=O)NCCCc3ccccc3)nn2CC1(C)C(=O)NCc1ccccc1` (configuration not stated), for which the activity change, negative = inhibition was 3.99% in experiment [1]; 4.69% in experiment [2]; -1.21% in experiment [3]; 4.04% in experiment [4]; -0.511% in experiment [5].

With `O=S(=O)(Cc1noc([C@@H]2C[C@@H](O)CN2CC2CC2)n1)c1ccc(F)cc1`, the activity change, negative = inhibition in experiment [1] is 0.098%; in experiment [2], 0.634%; in experiment [3], 2.99%; in experiment [4], -5.86%; in experiment [5] it was 18%.

In the case of `COc1cc(/C=C(\C#N)C(=O)c2ccc(O)c(O)c2)cc(I)c1O`, the activity change, negative = inhibition in experiment [1] was -55.8%; in experiment [2], -5.89%; in experiment [3], -15.1%; in experiment [4], -17.4%; in experiment [5], -6.98%.

In the case of `CC(C(=O)NCc1ccccc1)n1ccc2cc(S(=O)(=O)N3CCCCC3)ccc21` (configuration not stated), the activity change, negative = inhibition in experiment [1] was -1.71%; in experiment [2], 0.503%; in experiment [3], -1.95%; in experiment [4], -7.29%; in experiment [5], -1.76%.

In the case of `COC[C@@H]1CN(Cc2cn[nH]c2-c2ccccc2)C[C@H]1c1nc(C)no1`, the activity change, negative = inhibition in experiment [1] is -9.76%; in experiment [2], -2.46%; in experiment [3], 1.33%; in experiment [4], -10.1%; in experiment [5], -1.85%.

For the compound `CC(=O)OC1(C)CC(O)C2(O)C=COC(OC3OC(CO)C(O)C(O)C3O)C12` (configuration not stated), the activity change, negative = inhibition in experiment [1] was 0%; in experiment [2], 9.48%; in experiment [3], 7.39%; in experiment [4] it was -1.81%; in experiment [5], 7.97%.

Turning to `Cc1ncc([N+](=O)[O-])n1C[C@H](O)CN1CCOCC1`, the activity change, negative = inhibition in experiment [1] was 5.65%; in experiment [2], 8.43%; in experiment [3] it was 2.42%; in experiment [4], -12.4%; in experiment [5], -3.07%.

As for `Cc1cccc2c(C(=O)Nc3ccc4c(c3)C(=O)N(C)C3=NCCN34)cc(-c3ccccc3)nc12`, the activity change, negative = inhibition in experiment [1] came out at 2.22%; in experiment [2] it was 0%; in experiment [3] it was 0.947%; in experiment [4], 2.26%; in experiment [5], 2.45%.

As to `C[C@H]1CCN2C[C@]34C[C@@]5(C(=O)Nc6c5ccc5c6OC=CC(C)(C)O5)C(C)(C)C3C[C@]12C(=O)N4C` (some centres not stated), the activity change, negative = inhibition in experiment [1] was 0%; in experiment [2] it was 6.14%; in experiment [3], 10%; in experiment [4], -21.1%; in experiment [5] it was 0.088%.

Regarding `COc1cccc(C(=O)N2CCCC(COc3ccccc3C(=O)N3CCOCC3)C2)c1` (configuration not stated), the activity change, negative = inhibition was -5.89% in experiment [1]; -4.42% in experiment [2]; -4.88% in experiment [3]; -9.04% in experiment [4]; 11% in experiment [5].

With `CC(C)(C)c1cc(C[C@@H]2C[C@H](NS(C)(=O)=O)C2(C)C)no1`, the activity change, negative = inhibition is -3% in experiment [1]; -2.15% in experiment [2]; -1.63% in experiment [3]; -6.66% in experiment [4]; -0.865% in experiment [5].

For `CCCC1c2cccn2CCN1C(=O)Nc1cc(Cl)c(OC)cc1OC` (configuration not stated), the activity change, negative = inhibition in experiment [1] was 0.428%; in experiment [2], 0.665%; in experiment [3], -32.8%; in experiment [4], -0.113%; in experiment [5], 2.9%.

On to `O=C(O)c1cc2cccc([N+](=O)[O-])c2[nH]1`, for which the activity change, negative = inhibition in experiment [1] is -5.61%; in experiment [2], -4.29%; in experiment [3], 1.65%; in experiment [4], -15.3%; in experiment [5] it was -2.07%.

Turning to `CCCCCOC(=O)Nc1nc(=O)n(C2O[C@H](C)[C@@H](O)[C@H]2O)cc1F` (some centres not stated), the activity change, negative = inhibition is 5.88% in experiment [1] and 11.4% in experiment [3].

Regarding `CCCN1C(=O)c2c(C(=O)Nc3ccccc3Cl)ncn2CC1(C)C(=O)NCc1ccc(C)cc1` (configuration not stated), the activity change, negative = inhibition in experiment [1] was -12.4%; in experiment [2], 1.37%; in experiment [3] it was -5.02%; in experiment [4] it was -7.56%; in experiment [5] it was -4.29%.

On to `Cc1ccc(C(N)=O)cc1Nc1nccc(-c2cn(C(C)C)c3cnccc23)n1`, for which the activity change, negative = inhibition was -81.1% in experiment [1]; -43.2% in experiment [2]; -81.8% in experiment [3]; -72.4% in experiment [4]; -67.5% in experiment [5].

On to `CC1CCCC(NC(=O)Cn2c(=O)oc3cc(S(=O)(=O)NCc4ccccc4)ccc32)C1C` (configuration not stated), for which the activity change, negative = inhibition was -4.42% in experiment [1]; -0.677% in experiment [2]; -8.33% in experiment [3]; -3.69% in experiment [4]; -10.8% in experiment [5].
